Some of the results follow. Repeats are few or missing, and single values can be far off.
Legend:
Experiment in all cases: cell count relative to DMSO control; melanoma cells; higher = more viable cells
Conditions in all cases: library dose: standard library concentration; 72 h
G361 = test system: G361
IPC-298 = test system: IPC-298
IST-MEL1 = test system: IST-MEL1
LB2518-MEL = test system: LB2518-MEL
LOXIMVI = test system: LOXIMVI
MEL-HO = test system: MEL-HO
MZ2-MEL = test system: MZ2-MEL
MeWo = test system: MeWo
RPMI7951 = test system: RPMI7951
RVH-421 = test system: RVH-421
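Further: cells treated in 1,536-well plates, then fixed and DAPI-stained, with nuclei counted from automated high-throughput microscope images.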

Structure (SMILES) | cell count (G361) [%] | cell count (IPC-298) [%] | cell count (IST-MEL1) [%] | cell count (LB2518-MEL) [%] | cell count (LOXIMVI) [%] | cell count (MEL-HO) [%] | cell count (MZ2-MEL) [%] | cell count (MeWo) [%] | cell count (RPMI7951) [%] | cell count (RVH-421) [%]
COc1ccc(C2=N[C@@H](c3ccc(Cl)cc3)[C@@H](c3ccc(Cl)cc3)N2C(=O)N2CCNC(=O)C2)c(OC(C)C)c1 [Nutlin-3] + Nc1nc(F)nc2c1ncn2[C@@H]1O[C@H](CO)[C@@H](O)[C@@H]1O [fludarabine] (first compound 0.5 µM, partner dose 1 µM) | 84.9 | 65.8 | 80.2 | 71.7 | 66.3 | 80 | 103 | 102 | 84.4 | 85.2
COc1ccc(C2=N[C@@H](c3ccc(Cl)cc3)[C@@H](c3ccc(Cl)cc3)N2C(=O)N2CCNC(=O)C2)c(OC(C)C)c1 [Nutlin-3] + C=C(c1ccc(C(=O)O)cc1)c1cc2c(cc1C)C(C)(C)CCC2(C)C [Bexarotene] (first compound 0.5 µM, partner dose 10 µM) | 57.6 | 74.1 | 85.1 | 92.3 | 66 | 74.4 | 80.3 | 74.1 | 98.9 | 59.1
Cn1c(=O)n(-c2ccc(C(C)(C)C#N)cc2)c2c3cc(-c4cnc5ccccc5c4)ccc3ncc21 + O=C(CCCCCCC(=O)Nc1ccccc1)NO [vorinostat] (first compound 0.02 µM, partner dose 0.4 µM) | 58.4 | 89.1 | 86.2 | 75 | 63.7 | 71.3 | 116 | 71.2 | 69.8 | 78.9
CC(C)C[C@H](NC(=O)[C@H](Cc1ccccc1)NC(=O)c1cnccn1)B(O)O [Bortezomib] + CNC(=O)c1cc(Oc2ccc(NC(=O)Nc3ccc(Cl)c(C(F)(F)F)c3)cc2)ccn1 [sorafenib] (first compound 0.005 µM, partner dose 2 µM) | 2.06 | 11.1 | 6.03 | 4.05 | 23.3 | 28.1 | 3.69 | 19.3 | 3.1 | 7.09
COc1ccc(C2=N[C@@H](c3ccc(Cl)cc3)[C@@H](c3ccc(Cl)cc3)N2C(=O)N2CCNC(=O)C2)c(OC(C)C)c1 [Nutlin-3] + CCN(CC)CCNC(=O)c1c(C)[nH]c(/C=C2\C(=O)Nc3ccc(F)cc32)c1C [sunitinib] (first compound 0.5 µM, partner dose 2 µM) | 68.8 | 74 | 99.8 | 56.7 | 125 | 105 | 94.6 | 66.3 | 102 | 69
Cn1c(=O)n(-c2ccc(C(C)(C)C#N)cc2)c2c3cc(-c4cnc5ccccc5c4)ccc3ncc21 + CC(C)CCN1c2nc(Nc3cc(F)c(O)c(F)c3)ncc2N(C)C(=O)C1C [BID1870] (first compound 0.02 µM, partner dose 1 µM) | 49.4 | 58.4 | 64.2 | 99.4 | 81.2 | 61.9 | 84.6 | 53.2 | 84 | 76.2
CC(C)C[C@H](NC(=O)[C@H](Cc1ccccc1)NC(=O)c1cnccn1)B(O)O [Bortezomib] + OCCn1cc(-c2cnc3nnn(Cc4ccc5ncccc5c4)c3n2)cn1 [PF04217903] (first compound 0.005 µM, partner dose 5 µM) | 0.886 | 5.28 | 6.86 | 1.95 | 6.29 | 20.8 | 3.61 | 12.1 | 3.11 | 4.83
Cc1cc(Nc2cc(N3CCN(C)CC3)nc(/C=C/c3ccccc3)n2)n[nH]1 + O=C(Nc1cccc(Cl)c1)Nc1ncc(CCNc2ncnc3ccsc23)s1 [SNS314] (first compound 0.2 µM, partner dose 0.004 µM) | 83.4 | 93.8 | 60.5 | 70.4 | 70.8 | 82.8 | 93.3 | 56.4 | 50.3 | 79.5
Cc1cc(Nc2cc(N3CCN(C)CC3)nc(/C=C/c3ccccc3)n2)n[nH]1 + Cc1nc(Nc2ncc(C(=O)Nc3c(C)cccc3Cl)s2)cc(N2CCN(CCO)CC2)n1 [dasatanib] (first compound 0.2 µM, partner dose 0.02 µM) | 88.5 | 93.9 | 88.8 | 71.3 | 26.8 | 99.1 | 61 | 77.1 | 60.9 | 64.2
Cc1cc(Nc2cc(N3CCN(C)CC3)nc(/C=C/c3ccccc3)n2)n[nH]1 + COc1ccc(-c2ccc3c(N4CCOCC4)nc(N4C[C@@H](C)O[C@@H](C)C4)nc3n2)cc1CO [KU0063794] (first compound 0.2 µM, partner dose 0.1 µM) | 70.2 | 61.1 | 87.9 | 62.4 | 86 | 65.3 | 67.3 | 56.8 | 64.6 | 83.6
Cc1cc(Nc2cc(N3CCN(C)CC3)nc(/C=C/c3ccccc3)n2)n[nH]1 + C#Cc1cccc(Nc2ncnc3cc(OCCOC)c(OCCOC)cc23)c1 [erlotinib] (first compound 0.2 µM, partner dose 4 µM) | 56.9 | 51.9 | 79.3 | 43.4 | 66.2 | 60.5 | 69.3 | 56.8 | 60.4 | 56.7
Cn1c(=O)n(-c2ccc(C(C)(C)C#N)cc2)c2c3cc(-c4cnc5ccccc5c4)ccc3ncc21 + CO[C@@H]1[C@H](N(C)C(=O)c2ccccc2)C[C@H]2O[C@]1(C)n1c3ccccc3c3c4c(c5c6ccccc6n2c5c31)C(=O)NC4 [Midostaurin] (first compound 0.02 µM, partner dose 0.4 µM) | 55.3 | 72.7 | 62.9 | 76.5 | 64.8 | 55.9 | 60.7 | 48.5 | 44.5 | 60.9
Cc1cn(-c2cc(NC(=O)c3ccc(C)c(Nc4nccc(-c5cccnc5)n4)c3)cc(C(F)(F)F)c2)cn1 [nilotinib] + CC(=O)O[C@@]12CO[C@@H]1C[C@H](O)[C@@]1(C)C(=O)[C@H](O)C3=C(C)[C@@H](OC(=O)[C@H](O)[C@@H](NC(=O)OC(C)(C)C)c4ccccc4)C[C@@](O)([C@@H](OC(=O)c4ccccc4)[C@H]21)C3(C)C [Docetaxel] (first compound 1 µM, partner dose 0.0005 µM) | 12.6 | 34.3 | 41 | 35.3 | 72 | 38.7 | 41.3 | 26.6 | 18.5 | 53.9
Cc1cn(-c2cc(NC(=O)c3ccc(C)c(Nc4nccc(-c5cccnc5)n4)c3)cc(C(F)(F)F)c2)cn1 [nilotinib] + Nc1ccn([C@@H]2O[C@H](CO)[C@@H](O)C2(F)F)c(=O)n1 [gemcitabine] (first compound 1 µM, partner dose 0.002 µM) | 92.8 | 67.5 | 61.3 | 86.8 | 140 | 86.3 | 124 | 70.9 | 95.4 | 81.1
Cn1c(=O)n(-c2ccc(C(C)(C)C#N)cc2)c2c3cc(-c4cnc5ccccc5c4)ccc3ncc21 + O=c1cc(-c2cccc3c2Sc2ccccc2S3)oc(N2CCOCC2)c1 [KU55933] (first compound 0.02 µM, partner dose 5 µM) | 50.1 | 79.9 | 83.3 | 86.4 | 91.7 | 60.6 | 88.4 | 60.1 | 69.5 | 88.6
CC(C)C[C@H](NC(=O)[C@H](Cc1ccccc1)NC(=O)c1cnccn1)B(O)O [Bortezomib] + Cc1nc(Nc2ncc(C(=O)Nc3c(C)cccc3Cl)s2)cc(N2CCN(CCO)CC2)n1 [dasatanib] (first compound 0.005 µM, partner dose 0.02 µM) | 2.86 | 10 | 6.66 | 3.45 | 31.2 | 13.3 | 5.23 | 16.7 | 5.5 | 9.28
COc1ccc(C2=N[C@@H](c3ccc(Cl)cc3)[C@@H](c3ccc(Cl)cc3)N2C(=O)N2CCNC(=O)C2)c(OC(C)C)c1 [Nutlin-3] + CO[C@@H]1[C@H](N(C)C(=O)c2ccccc2)C[C@H]2O[C@]1(C)n1c3ccccc3c3c4c(c5c6ccccc6n2c5c31)C(=O)NC4 [Midostaurin] (first compound 0.5 µM, partner dose 0.4 µM) | 40.9 | 64.3 | 97 | 51.9 | 49.4 | 67 | 78.5 | 74.4 | 36.6 | 61.1
CC(C)C[C@H](NC(=O)[C@H](Cc1ccccc1)NC(=O)c1cnccn1)B(O)O [Bortezomib] + OCc1c[nH]c2ccccc12 [Indole-3-carbinol] (first compound 0.005 µM, partner dose 4 µM) | 1.52 | 12.2 | 9.16 | 5.96 | 20 | 31.3 | 4.6 | 18 | 4.6 | 11.5
